In PubChem BioAssay AID1508642 (National Center for Advancing Translational Sciences (NCATS), 2021):
About 200 (0.47%) of roughly 43,000 compounds were called active. About 12% were inconclusive and are not listed. Calls come from the whole dose curve; as a rule, active = well fitted cell-killing curve with a large enough effect; inconclusive = small, poorly fitted or top-dose-only effect, or effect the other way; inactive = flat fitted curve, though single readings scatter. Some of the results follow.

Assay: Cell viability qHTS assay in S16 Pmp22-F2sN cells; note: nearly all actives have a fitted effect of over 65% in size
Details: S16 Pmp22-F2sN Schwann cells (luciferase reporters placed in the Pmp22 gene) viability, CellTiter-Glo, 24 h; series mostly up to 57.5 µM; activity change, negative = cytotoxicity: at the top concentration
Method in brief: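 S16 Schwann cells carrying the Pmp22-F2sN reporter, seeded in 1536-well format, were exposed to library compounds for 24 h at 37C. Viability was read as CellTiter-Glo luminescence after 15 min at room temperature.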
% is set by controls: 0 for no effect and ±100 for the full control effect.

| SMILES | activity change, negative = cytotoxicity |
| --- | --- |
| CC(C)OCCCn1c(SCC(N)=O)nc2c(sc3ccccc32)c1=O | inactive: 16.1% |
| Cc1nn(CCC(=O)NCc2cccc(Br)c2)c(=O)c2nn(-c3ccccc3)c(C)c12 | inactive: -11.4% |
| O=C(NCCCCc1ccccc1)c1nn(-c2ccccc2F)nc1CO | inactive: -7.17% |
| CCn1c(=O)c2sccc2n2c(CCC(=O)N3CCN(c4ccccc4OC)CC3)nnc12 | inactive: 16.9% |
| COc1ccc(-c2nnc(SCC(=O)Nc3ccccc3C)o2)cc1OC | inactive: 9.92% |
| O=C(c1cccs1)c1cn(CCOc2ccc(F)cc2)c2ccccc12 | inactive: 6.1% |
| CCOC(=O)c1c(C)[nH]c(C)c1S(=O)(=O)NCC(=O)Nc1ccc(CC)cc1 | inactive: -15.1% |
| CCc1ccccc1NC(=O)c1cc2sc(Cl)cc2n1CC | inactive: -2.23% |
| COc1ccc2c(c1)CCc1c(C(=O)Nc3c(C)nn(Cc4c(Cl)cccc4Cl)c3C)noc1-2 | inactive: -8.65% |
| CCOC(=O)c1noc2ncn(CC(=O)Nc3cc(Cl)ccc3OC)c(=O)c12 | inactive: 0.688% |
| O=C(O)Cc1sc(Nc2ccc(C(=O)O)cc2)nc1-c1ccccc1 | inactive: 9.14% |
| O=C(Cn1cnc2onc(-c3ccc(F)cc3)c2c1=O)N1CCN(c2ccccc2F)CC1 | inactive: 8.24% |
| COc1ccc(CNC(=O)C2CCN(S(=O)(=O)c3c(C)noc3/C=C/c3cccs3)CC2)cc1 | inactive: 4.65% |
| Cc1ccccc1NC(=O)CCOc1ccccc1 | inactive: 4.08% |
| COc1cc2ccccc2cc1C(=O)Nc1cccc(-c2nc3ccccc3o2)c1 | inactive: -6.94% |
| COc1ccc(N2CCN(C(=O)c3cn(C)c4ccc(S(=O)(=O)N(C)C5CCCCC5)cc4c3=O)CC2)cc1 | inactive: -0.268% |
| Cn1cc(-c2cc3n(n2)CCC(=O)N3CCCC(=O)Nc2ccccc2Cl)c2ccccc21 | inactive: 1.36% |
| COc1cc(-c2nc3ccc(Cl)cn3c2Nc2ccc3c(c2)OCO3)ccc1O | inactive: -26.3% |
| Cc1ccc(NC(=O)c2cc(CN3CCOCC3)on2)cc1Cl | inactive: 3.79% |
| Nc1nn(-c2ccccc2)nc1C(=O)OCc1ccccc1Br | inactive: 2.41% |
| Cc1cccc(N2CCN(C(=O)CN3C(=O)COc4ccc(S(=O)(=O)N5CCCC5)cc43)CC2)c1C | inactive: 21.2% |
| N#C/C(=C\c1c(Oc2ccc(F)cc2)nc2ccccn2c1=O)c1nc2ccccc2s1 | inactive: -5.4% |
| Cc1oc(-c2cccc(Br)c2)nc1CSc1nc2ncccc2[nH]1 | inactive: 1.7% |
| CCCOc1ccc(C(=O)Nc2sc3c(c2C(=O)OCC)CCCCC3)cc1 | inactive: 1.43% |

| SMILES | activity change, negative = cytotoxicity |
| --- | --- |
| O=C1CC(c2ccc(F)cc2)c2c(n3c(nc4ccccc43)[nH]c2=O)N1 (stereo unspecified) | inactive: 5.68% |
| CCc1ccc(CNC(=O)C2CCN(C(=O)c3ccc(-n4ccc5ccccc54)s3)CC2)cc1 | inactive: 2.04% |
| CCOc1ccc(N(C(=O)c2ccc(OC)cc2)S(=O)(=O)c2ccc3c(c2)n(C)c(=O)n3C)cc1 | inactive: -11.3% |
| O=C(NCc1cccnc1)C1CCN(Cc2cc3ccccc3n2Cc2ccccc2)CC1 | inactive: -22.2% |
| CCOC(=O)c1cc(OC(=O)c2cccc(F)c2)n(-c2ccccc2)n1 | inactive: 3.12% |
| CC(=O)N1CCCc2ccc(NC(=O)c3ccc(C(F)(F)F)cc3)cc21 | inactive: 1.41% |
| Cc1ccccc1-c1noc(-c2ccc(N3CCCC3)c([N+](=O)[O-])c2)n1 | inactive: 19.4% |
| Cc1cc(C)cc(NC(=O)CSc2nnc(CNC(=O)c3c(F)cccc3Cl)o2)c1 | inactive: -1.2% |
| CCN(CC)S(=O)(=O)c1ccc2c(c1)N(CC(=O)Nc1c(C)cc(C)cc1C)C(=O)CS2 | inactive: 5.15% |
| COC(=O)c1cc2oc(C)cc2n1Cc1ccc(C)cc1 | inactive: 9.1% |
| CC(C)c1ccc(NC(=O)CN2C=NS(=O)(=O)c3ccccc32)cc1 | inactive: 2% |
| COc1ccc(-c2nnc(SCC(=O)c3ccc([N+](=O)[O-])cc3)o2)cc1OC | inactive: -0.712% |
| COc1ccc2c(c1)Cc1sc(NC(=O)c3ccc(Cl)cc3)nc1-2 | inactive: -5.59% |
| Cc1cccn2c(=O)c3cc(C(=O)NC(C)c4ccccc4)c(=N)n(CCOCCO)c3nc12 (stereo unspecified) | inactive: 5.26% |
| O=C(NCc1ccccc1Cl)C(=O)NCC(c1cccs1)S(=O)(=O)c1ccccc1 (stereo unspecified) | inactive: -10.6% |
| N#C/C(=C\c1ccc(-c2ccc(Cl)c(C(=O)O)c2)o1)c1nc2ccccc2[nH]1 | inactive: 3.13% |
| CC(C)C(=O)c1cc2c(cc1NC(=O)c1ccccc1F)OCCO2 | inactive: -4.2% |
| Cc1ccc(COc2cccc3cc(-c4noc(-c5ccc(C)cc5)n4)c(=O)oc23)cc1 | inactive: -1.18% |
| Cc1ccc(C(=O)c2oc3ccccc3c2NC(=O)COc2ccc(C(C)(C)C)cc2)cc1 | inactive: 21.9% |
| Cc1ccc(NC(=O)Cn2cnc3c(oc4ccccc43)c2=O)cc1 | inactive: -2.45% |
| COC(=O)c1ccc(NC(=O)CSc2nc3c(c(=O)n(C)c(=O)n3C)n2Cc2ccccc2)cc1 | inactive: 2.99% |
| COc1ccc(C(=O)NCc2nnc(SCC(=O)Nc3ccc(F)cc3)n2-c2ccccc2)cc1 | inactive: 16.1% |
| COc1ccc(Cl)cc1NC(=O)c1c(NCc2cccs2)sc2c1CCCC2 | inactive: -3.07% |
| Cc1cccc(-n2ncc(C(=O)Nc3ccc4c(c3)OCO4)c2C2CCN(C(=O)OC(C)(C)C)CC2)c1 | inactive: -13.8% |

| SMILES | activity change, negative = cytotoxicity |
| --- | --- |
| Cc1ccc(S(=O)(=O)Nc2c(C)nc3nc(C)[nH]n3c2=O)c(C)c1 | inactive: -6.78% |
| COc1ccccc1Cc1nc2ccccc2nc1SCC(=O)N1CCCc2ccccc21 | inactive: 3.09% |
| Cc1ccccc1-c1noc(-c2cc(C(C)C)[nH]n2)n1 | inactive: -25.1% |
| CC(=O)N1CCc2cc(S(=O)(=O)CCC(=O)N3CCN(c4ccccc4F)CC3)ccc21 | inactive: 3.71% |
| Cc1oc2ncn(CC(C)C)c(=O)c2c1C(=O)N(Cc1ccccc1)C(C)C | inactive: 12.5% |
| Cc1nc2nc(C(F)(F)F)[nH]n2c(=O)c1Cc1ccccc1 | inactive: -15.5% |
| CC1Cn2cc(C(=O)Nc3ccccc3C(F)(F)F)c(=O)c3c(Cl)ccc(c32)O1 (stereo unspecified) | inactive: 8.28% |
| CC(C)Oc1ccc(C(=O)Nc2nc3c(s2)CC(C(C)(C)C)CC3)cc1 (stereo unspecified) | inactive: -3.1% |
| O=C(NCC(c1ccc2c(c1)OCO2)N1CCN(c2ccccc2)CC1)c1ccccc1 (stereo unspecified) | inactive: -0.801% |
| O=C(CN1C(=O)C2(SCC(=O)N2c2ccc(Cl)cc2)c2ccccc21)NCCc1ccccc1 (stereo unspecified) | inactive: -2.97% |
| Cc1ccc(O)c(NC(=O)CCSc2nc(-c3ccco3)cc(C(F)(F)F)n2)c1 | inactive: -1% |
| COc1ccc(Cl)cc1NS(=O)(=O)c1c(C)[nH]c(=O)[nH]c1=O | inactive: 5.6% |
| CCOc1ccccc1NC(=O)c1c(NC(=O)c2ccncc2)sc2c1CCC(C(C)(C)C)C2 (stereo unspecified) | inactive: 12.2% |
| Cc1ccc(Cn2c(C)c3cnn(CC(=O)N4CCN(c5ccc(F)cc5)CC4)c(=O)c3c2C)cc1 | inactive: -28.3% |
| COc1cc(OC)c(NC(=O)c2cn(C)c(=O)c3cc(OC)c(OC)cc23)cc1Cl | inactive: -6.93% |
| O=C(/C=C/c1ccccc1)N1CCN(Cc2cc(=O)n3nc(-c4ccccc4Cl)sc3n2)CC1 | inactive: -28.7% |
| CC(NC(=O)c1cc(-c2ccc(Cl)cc2)on1)c1ccccc1 (stereo unspecified) | inactive: -19% |
| CCc1cccc(NC(=O)c2cccc3c2C(=O)N(C2CCCCC2)C3)c1 | inactive: -2.67% |
| COc1ccc(Nc2ncnc3c2nc2n3CCCC2)cc1Cl | inactive: -23.7% |
| O=C(NCC(c1cccnc1)N1CCc2ccccc21)C(=O)Nc1ccccc1F (stereo unspecified) | inactive: -19.3% |
| CCOC(=O)c1nnn(CC(=O)NC(=O)Nc2ccc(F)cc2)c1C(=O)OCC | inactive: 5.66% |
| COc1ccc(S(=O)(=O)NCC(c2ccco2)N2CCN(c3ccccc3F)CC2)cc1C (stereo unspecified) | inactive: -5.48% |
| COc1cc(/C=C/c2nc3cc(Cl)ccc3c(=O)n2-c2ccc(C)cc2C)cc(OC)c1OC | inactive: 5.15% |
| CSc1ccc(NC(=O)Cn2nnnc2-c2ccccc2F)cc1 | inactive: -0.707% |

| SMILES | activity change, negative = cytotoxicity |
| --- | --- |
| O=C(O)c1c2c(nc3ccc(S(=O)(=O)N4CCC(C(=O)NCc5ccc(Cl)cc5)CC4)cc13)CCCC2 | inactive: 10.8% |
| CCOC(=O)c1c(C)oc2nc(C)nc(N3CCN(c4cccc(C)c4C)CC3)c12 | inactive: 7.97% |
| Cc1cccc(OCCSc2nc3ccccc3n2CC(=O)N2CCOCC2)c1C | inactive: 3.94% |
| CCOc1ccc(S(=O)(=O)Nc2ccc(OC)c(Cl)c2)c2cccnc12 | inactive: -10% |
| CCN1C(=O)c2ccccc2S(=O)c2ccc(C(=O)NCc3ccccc3OC)cc21 (stereo unspecified) | inactive: 6.1% |
| CCOC(=O)N1CCN(Cc2nc3cc(NC(=O)c4ccc([N+](=O)[O-])cc4)ccc3n2C(C)C)CC1 | inactive: -24.8% |
| Cc1ccc(NC(=O)C2CCCN(S(=O)(=O)c3c(C)nn(C)c3C)C2)c(C)c1 (stereo unspecified) | inactive: 12% |
| O=C(NC1(C(F)(F)F)C(=O)Nc2c1c(=O)[nH]c(=O)n2-c1ccccc1)c1ccccc1 (stereo unspecified) | inactive: 6.75% |
| CCOc1ccc(C(=O)NCc2nc3cccnc3n2Cc2cccc(OC)c2)cc1 | inactive: 7.36% |
| CCCN(CCC)C(=O)Cn1c(SCc2cccc(C(F)(F)F)c2)nc2cccnc21 | inactive: -25.8% |
| CCOc1ccccc1CNC(=O)c1ccc(NC(=O)N2CC(C)Sc3ccccc32)cc1 (stereo unspecified) | inactive: -28.5% |
| COc1ccc(OC)c(CNC(=O)CN(c2ccc(C)cc2)S(=O)(=O)N(C)C)c1 | inactive: 17.9% |
| Cc1cccc(NC(=O)N2CCN(C)c3ncccc32)c1C | inactive: -3.49% |
| N#Cc1ccccc1NC(=O)C(=O)NCCc1csc2nc(-c3cccc(F)c3)nn12 | inactive: 7.8% |
| CCOC(=O)C1CCN(c2c(C(=O)c3ccc(OC)cc3)cnc3ccccc23)CC1 | inactive: -6.31% |
| CSCC[C@@H](C(=O)Nc1cccc(F)c1)N1Cc2ccccc2C1=O | inactive: -5.3% |
| O=C(CSc1nccn1C1CCCC1)Nc1cccc(F)c1 | inactive: 1.68% |
| CCOCCc1nn2c(=O)cc(COC(=O)Cc3ccccc3)nc2s1 | inactive: 6.31% |
| CCCN(C(=O)Cn1ncc2c1-c1ccccc1OC2)c1cccc(C)c1 | inactive: 12.4% |
| Cc1cccc(N2CCN(c3ccc(C(=O)O)cc3NC(=O)c3cccc(Cl)c3)CC2C)c1 (stereo unspecified) | inactive: -28.6% |
| CCc1ccc(-c2nc(SCC(=O)NCC3CCCO3)c(-c3ccc(C)cc3)[nH]2)cc1 (stereo unspecified) | inactive: 5.54% |
| Cc1cccc(C)c1NC(=O)Cn1c(=O)n(CCCS(=O)(=O)C2CCCCC2)c(=O)c2ccccc21 | inactive: 0.375% |
| Cc1ccc(-n2c(=O)c3ccc(C(=O)NCc4ccco4)cc3n(CC(=O)Nc3ccccc3C(F)(F)F)c2=O)cc1 | inactive: 10.1% |
| CN(C(=O)Cn1cnc2onc(-c3ccc(F)cc3)c2c1=O)c1ccccc1Cl | inactive: 6.27% |
